PubChem BioAssay AID588855 (National Center for Advancing Translational Sciences (NCATS), 2011)
The campaign covered roughly 410,000 compounds. About 5,000 (1.2%) were called active. Inconclusive results, whose numbers are uncertain, are shown with a selection of clear calls. Calls follow the shape of the dose curve; as a rule, active = well fitted inhibition curve with a large enough effect; inconclusive = small, poorly fitted or top-dose-only effect; inactive = no such curve, though single readings can be large or run the other way. Potencies of inconclusive entries are doubtful fits and often do not repeat.

Assay: qHTS for Inhibitors of TGF-b; also: nearly all actives have a fitted effect of over 65% in size
Conditions: HepG2 CAGA-GFP TGF-b/SMAD3 reporter, GFP fluorescence, 18 h, TGF-beta stimulated, 500 pg/mL final; series mostly up to 46.1 µM; activity, negative = inhibition: at the top concentration
Method in brief: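 HEPG2 CAGA-GFP, 1000 cells/well; 2 h settle, 37 C; cpd via pin tool; TGF-b 500 pg/mL final; 18 h, 37 C; GFP imaging ex488/em500-530; %Activity normalised to -TGF-b and +DMSO controls; CRC fit, curve class.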
% is scaled to controls: 0 for no effect and ±100 for the full control effect; potency is read from the fitted curve at half-maximal effect; tags tell the direction and shape of the fitted curve.

Structure (SMILES)	Potency	activity, negative = inhibition
CCCCN(CC)C(=O)Cn1cc2c(n1)-c1c(oc(C(=O)N3CCCC3)c1C)CC2	inconclusive: 0.631 µM [inhibitor, full curve, poor fit]	
CCC(=O)N(C1=C(NC(C)C)C(=O)c2ccccc2C1=O)C(C)C	inconclusive: 35.5 µM [inhibitor, single point]	
O=c1[nH]c2cnccc2n1-c1ccccc1	inconclusive: 0.112 µM [inhibitor, full curve, poor fit]	
CC(=O)C(Sc1nc(-c2ccccc2Cl)nc2c1c(=O)n(C)c(=O)n2C)C(=O)N(C)C (stereo not drawn)	inconclusive: 1.26 µM [inhibitor, full curve]	
CCc1ccc(-n2c(CSc3nnnn3-c3ccccc3)nc3ccccc3c2=O)cc1	inconclusive: 5.62 µM [inhibitor, single point]	
O=C(NCc1ccncc1)Nc1ccc(Cc2ccc(NC(=O)NCc3ccncc3)cc2)cc1	inconclusive: 15.8 µM [inhibitor, single point]	
COc1ccc(N(C(=O)c2ccco2)C(C(=O)NC2CCCCC2)c2ccccc2)cc1 (stereo not drawn)		inactive: -31.1%
CC(C)(C)C(=O)Nc1nnc(CSCc2ccccc2F)s1	inconclusive: 35.5 µM [inhibitor, single point]	
O=C(CCn1ccnc1)Nc1cc(Cl)ccc1O		inactive: 15.5%
Cc1nn(-c2ccc(N3CCCCC3)nn2)c(C)c1CCC(=O)Nc1cccc(F)c1	inactive	
CCN(CCCNC(=O)CN1N=C(c2ccc(C)cc2)CCC1=O)c1ccccc1	inconclusive: 17.8 µM [inhibitor, single point]	
Cc1cc(C)nc(NS(=O)(=O)c2ccc(N3C(=O)C4CC=C(Cl)CC4C3=O)cc2)n1 (stereo not drawn)	inconclusive: 35.5 µM [inhibitor, single point]	
COCCN(C(=O)COC(=O)/C=C/c1ccc(C(F)(F)F)cc1)c1c(N)n(Cc2ccccc2)c(=O)[nH]c1=O		inactive: -0.924%
COc1cc(NS(=O)(=O)c2ccc(Nc3nc(-c4ccccc4)cs3)cc2)nc(OC)n1	inconclusive: 35.5 µM [inhibitor, single point]	
CCOC(=O)C1CCCN(C(=O)COc2ccc(C(C)(C)C)cc2)CC1 (stereo not drawn)		inactive: -3.27%
CC(C)C[C@H](NC(=O)C1CC(=O)N(c2ccc3c(c2)OCCO3)C1)C(=O)N1CCCCC1 (stereo partly drawn)	inconclusive: 5.62 µM [inhibitor, single point]	
O=C(Nc1nnc2n1CCS2)c1cc(C(F)(F)F)cc(C(F)(F)F)c1		inactive: 0.47%
Cc1ccc(C(=O)c2cc([N+](=O)[O-])ccc2N2CCOCC2)c(C)c1	inconclusive: 5.01 µM [inhibitor, full curve, poor fit]	
